The whole screen tested about 52,000 compounds, of which about 1,700 (3.3%) were called active. Cut-off read from the data, not from the text of the source: active = survival mostly below about 52% (no sharp cut-off); inactive = mostly above about 56%. The list shows a part of the results.
The compounds below were run on Wild type (assay: S. aureus survival, RN4220 and DeltatarO strains – OD600, teichoic acid synthesis inhibitors, primary screen (AID 463173)). Details: S. aureus RN4220 wild type/DeltatarO growth, OD600, 18 h, active compounds read low, screened at 18.75 µg/mL (by protocol).
Cc1c(CC(=O)NCc2ccc(F)cc2)c(=O)oc2cc(O)c(Cl)cc12 was tested, and the survival was inactive: 76%.
COc1ccc(NC(=O)CC2NCCNC2=O)c(OC)c1 (stereo unspecified) was tested, and the survival was inactive: 75%.
With O=C(NCc1ccccc1Cl)c1ccc2oc(=O)n(Cc3ccccc3)c2c1 the survival was inactive: 81%.
For Cc1cc(C)n(-c2nc3ccccc3nc2N2CCN(c3cccc(C(F)(F)F)c3)CC2)n1, the survival was inactive: 88%.
In the case of Cc1cccc(-n2nc(C)c(C(=O)Nc3cc(C)ccc3C)c2-n2cccc2)c1, the survival is reported as inactive: 66%.
For CCN1C(=O)/C(=C\C=C2/N(CC)c3ccc(C(=O)OC)cc3N2CC)SC1=S, the survival was inactive: 96%.
With O=C(Nc1nncs1)Oc1ccccc1 the survival was inactive: 105%.
For Cc1ccc(-n2c(SCc3ccccc3)nc3c([nH]c4ccccc43)c2=O)cc1, the survival was inactive: 72%.
With CCN(CC)C(=O)O[n+]1ccccc1C(C)C the survival was inactive: 113%.
For O=C(Nc1ccc(-c2nc3cc(Cl)ccc3o2)cc1)c1cc2ccccc2o1, the survival was inactive: 82%.
In the case of COc1ccc(CNC(=O)c2ccc3nc(-c4ccc(F)cc4)c(-c4ccc(F)cc4)nc3c2)cc1, the survival is reported as inactive: 80%.
Cc1nnc(NC(=O)c2ccccc2)s1 was tested, and the survival was inactive: 71%.
In the case of CCC1(C)Cc2c(sc3nc(SC)n(-c4ccc(C)cc4)c(=O)c23)CO1 (stereo unspecified), the survival is reported as inactive: 57%.
With Cc1ccc(NC(=O)c2ccccc2Br)c(C(=O)c2ccccc2)c1 the survival was inactive: 25%.
For Nc1nc(-c2ccco2)nn1S(=O)(=O)c1ccccc1, the survival was inactive: 93%.
Cc1cc(NC(=O)CCNS(=O)(=O)c2cccc3nsnc23)ccc1Br was tested, and the survival was inactive: 123%.
With COc1ccc(Cn2c(SCc3ccc(C(=O)NC(C)c4ccccc4)cc3)nc3cccnc32)cc1 (stereo unspecified) the survival was inactive: 75%.
CC1CCN(c2nc3ccc(C(=O)NCc4ccccc4)cc3s2)CC1 was tested, and the survival was inactive: 74%.
With Cc1cccc(N2CCN(C(=O)CS(=O)(=O)Cc3nc(-c4ccccc4C)oc3C)CC2C)c1 (stereo unspecified) the survival was inactive: 54%.
CCc1ccc(S(=O)(=O)c2nnn3c2nc(Nc2ccc(NC(C)=O)cc2)c2sccc23)cc1 was tested, and the survival was inactive: 86%.
CCOc1ccc(N(Cc2ccccc2)C(=O)c2nc(S(C)(=O)=O)ncc2Cl)cc1 was tested, and the survival was inactive: 39%.
COc1ccc(OC)c(NC(=O)Cn2c(=O)cc(-c3ccccc3)c3c(C)nn(C)c32)c1 was tested, and the survival was inactive: 74%.
With COc1cc(NC(=O)CCCOc2cc(=O)n(C)c3ccccc23)cc(OC)c1OC the survival was inactive: 81%.
For CCOC(=O)CNC(=O)N1CCN(c2nnc(C)c3c(C)n(-c4ccc(Cl)cc4)nc23)CC1, the survival was inactive: 72%.
With Cc1cccc(C(=O)N=Nc2c(O)[nH]c3ccc(C)cc23)c1 the survival was inactive: 117%.
In the case of O=C(O)CCC(=O)Nc1ccncc1, the survival is reported as inactive: 101%.
For O=S(=O)(NCc1nc2cccnc2n1Cc1ccccc1Cl)c1ccc(F)c(Cl)c1, the survival was inactive: 76%.
In the case of CC(=O)c1c(C)oc2c1cc(NS(=O)(=O)c1ccc(Cl)c(C)c1)c1ccccc12, the survival is reported as inactive: 76%.
In the case of COCc1nnc(NC(C)=O)s1, the survival is reported as inactive: 97%.
In the case of O=C(Nc1ccc(Cl)cc1)C(NS(=O)(=O)c1cccs1)c1ccccc1 (stereo unspecified), the survival is reported as inactive: 40%.
Cc1cccc(OCC(=O)Nc2nnc(S(=O)(=O)N3CCc4ccccc43)s2)c1 was tested, and the survival was inactive: 25%.
In the case of Cc1ccc(-n2c(Cc3ccccc3)nnc2SCc2nc(-c3cccs3)no2)cc1C, the survival is reported as inactive: 63%.
With Cc1nc(-c2ccc(C)c(N3CCN(C(=O)Nc4cccc(Cl)c4C)CC3)c2)no1 the survival was inactive: 78%.
For CCOC(=O)C1CCCN(Cc2cn3c(-c4cccc(Br)c4)nnc3s2)C1 (stereo unspecified), the survival was inactive: 85%.
For CCC(C(=O)Nc1cc(F)ccc1F)n1nc(C)c2c(C)n(-c3ccc(C)cc3)nc2c1=O (stereo unspecified), the survival was inactive: 72%.
Cc1cc(C)c2c(=O)cc(CSc3n[nH]c(C)n3)[nH]c2c1 was tested, and the survival was inactive: 74%.
With O=c1[nH]cc(N2CCOCC2)c(=O)[nH]1 the survival was inactive: 108%.
In the case of COc1ccc(CCC(=O)NC2CC(=O)N(c3ccc(OC)cc3)C2)cc1 (stereo unspecified), the survival is reported as inactive: 79%.
For CCc1ccccc1NC(=O)c1noc2c1CC(C(C)(C)C)CC2 (stereo unspecified), the survival was active: -11%.
In the case of CCN(C(=O)c1cn(CC)c(=O)c2cc(OC)c(OC)cc12)c1ccccc1F, the survival is reported as inactive: 146%.
With Cc1cccc(NC(=O)C(=O)NCCc2csc(-c3ccc(F)cc3)n2)c1C the survival was inactive: 75%.
For O=C(CSCc1ccc(F)cc1)N1CCc2c([nH]c3ccccc23)C1c1ccc(Cl)cc1 (stereo unspecified), the survival was inactive: 84%.
With COc1cc(C(=O)Nc2ccccc2-c2nc(-c3ccc(C)cc3)no2)cc(OC)c1OC the survival was inactive: 85%.
For Cc1cc(N2CCCCC2)nc2ccc(NC(=O)CCC(=O)N3CCN(c4ccccc4)CC3)cc12, the survival was inactive: 75%.
For O=C(CSc1ncccn1)NCCC1=CCCCC1, the survival was inactive: 112%.
With Cc1cccc(N2CCN(C(=O)c3ccc(Nc4nc5ccccc5n5nnnc45)cc3)CC2)c1C the survival was inactive: 97%.
For CCOC(=O)c1ccc(NC(=O)C2=C(C)Nc3nc(CCCO)nn3C2c2ccc(OC)cc2)cc1 (stereo unspecified), the survival was inactive: 85%.
In the case of CC1=C(C(=O)Nc2cc(Cl)ccc2C)C(c2cccs2)n2ncnc2N1 (stereo unspecified), the survival is reported as inactive: 128%.
CC(=O)NC(Cc1ccccc1)C(=O)NC1CCN(c2nnnn2-c2ccccc2)CC1 (stereo unspecified) was tested, and the survival was inactive: 87%.
COc1ccc(NC(=O)CN2C(=O)c3cccnc3Sc3ccccc32)cc1OC was tested, and the survival was inactive: 81%.
In the case of CCOc1ccccc1-n1nnnc1SCC(=O)c1cc(Cl)ccc1OC, the survival is reported as inactive: 91%.
In the case of COc1ccc(CCNC(=O)C(C)n2c(=O)cc(-c3ccccc3)c3c(C)nn(C)c32)cc1OC (stereo unspecified), the survival is reported as inactive: 69%.
In the case of CCSc1nc(-c2ccccc2F)nc2c1Cc1c(CO)cnc(C)c1O2, the survival is reported as inactive: 86%.
COc1cc(C2C(=O)N(C3CCCCC3)CC(=O)N2C2CCCCC2)ccc1OC(C)C (stereo unspecified) was tested, and the survival was inactive: 83%.
In the case of CC1CCN(c2nc3ccc(C(=O)N4CCN(c5ccccc5)CC4)cc3s2)CC1, the survival is reported as inactive: 64%.
CCOc1ccc(N(CC)C(=O)c2cc3c(s2)-c2ccccc2OC3)cc1 was tested, and the survival was inactive: 88%.
In the case of N#CCCNc1nncs1, the survival is reported as inactive: 107%.
With Cc1ccc(-c2nc3sccn3c2Nc2ccc(C)c(C)c2)cc1 the survival was inactive: 73%.
COc1cccc(N2CCN(C(=O)c3nn(C)c4c3CSc3ccc(C)cc3-4)CC2)c1 was tested, and the survival was inactive: 121%.
With CCC(=O)N1CCc2cc(CNC(=O)c3ccc(F)cc3)ccc21 the survival was inactive: 73%.
Cc1ccc(SCc2nc(-c3ccc(C(=O)NCCc4ccc(Cl)cc4)cc3)oc2C)cc1 was tested, and the survival was active: -4%.
With Cc1nn2c(=O)cc(COC(=O)c3ccccc3NC(=O)COc3ccccc3C)nc2s1 the survival was inactive: 85%.
O=C(NCc1ccccc1F)c1ccc(CSc2nc3cccnc3n2Cc2ccccc2)cc1 was tested, and the survival was inactive: 78%.
With COC(=O)c1cc2sc(Cl)cc2n1CC(=O)Nc1cc(C)cc(C)c1 the survival was inactive: 88%.
In the case of COc1ccc(OC)c(CNc2nc3ccc(C)cc3n3nnnc23)c1, the survival is reported as inactive: 85%.
For CCc1ccc(NC(=O)CS(=O)CC(=O)Nc2ccc(F)cc2F)cc1 (stereo unspecified), the survival was inactive: 105%.
COc1ccc(OC)c(NC(=O)[C@H](CSCc2ccccc2)N2Cc3ccccc3C2=O)c1 was tested, and the survival was inactive: 117%.
N#Cc1nc(-c2ccc(COc3ccccc3)o2)oc1N1CCCCC1 was tested, and the survival was inactive: 72%.
For COC(=O)c1cc2occc2n1CC(=O)Nc1ccc(N(C)C)cc1, the survival was inactive: 96%.
In the case of Cc1ccc(CNC(=O)Cn2c(=O)n(-c3ccc(C)cc3)c(=O)c3c2c2cc(C)ccc2n3C)cc1, the survival is reported as inactive: 152%.
In the case of COC(=O)c1c(N)n(-c2ccc(OC)c(OC)c2)c2nc3ccccc3nc12, the survival is reported as inactive: 67%.
With CCCCCC1CC(CC(C)C(=O)Nc2nncs2)C(=O)O1 (stereo unspecified) the survival was inactive: 116%.
In the case of N#CC1=C2SCN(C3CCCCC3)CN2C(=O)CC1c1ccc(Cl)cc1 (stereo unspecified), the survival is reported as inactive: 81%.
With Cc1ccccc1NC(=O)Cn1c(=O)n(Cc2ccccc2)c(=O)c2c(C)c(C)sc21 the survival was inactive: 126%.
For CCC(Sc1nnc2c3ccccc3n(CC)c2n1)C(=O)Nc1nnc(C(C)C)s1 (stereo unspecified), the survival was inactive: 68%.
For COc1ccc(-c2cc3nc(C4CCN(C(=O)OC(C)(C)C)CC4)c(C(=O)Nc4cc(C)cc(C)c4)cn3n2)cc1, the survival was inactive: 79%.
With Cn1c(=O)cc(SCC(=O)N2CCN(c3ccccc3F)CC2)c2ccccc21 the survival was inactive: 73%.
In the case of COc1ccc2c(CNCCc3cccs3)c(C(=O)O)n(Cc3ccc(F)cc3Cl)c2c1, the survival is reported as inactive: 115%.
For CCCCN1CC(c2nc3ccccc3n2CCCCOc2cccc(C)c2C)CC1=O (stereo unspecified), the survival was active: -13%.
For CCOc1ccc(CN(CCc2ccc3c(c2)OCO3)Cc2cc(OC)c(OC)cc2OC)cc1, the survival was inactive: 49%.
In the case of N#CCCn1cc(CO)c(-c2ccccc2)n1, the survival is reported as inactive: 115%.
CCOc1ccc(NC(=O)CC2C(=O)N(c3cccc(C)c3)C(=O)N2Cc2cccs2)cc1 (stereo unspecified) was tested, and the survival was inactive: 85%.
In the case of CCCN1CCN(CCCNC(=O)c2ccc3nc(Cc4ccccc4)oc3c2)CC1, the survival is reported as inactive: 75%.
With COc1ccc(C)cc1NC(=O)c1cc(S(=O)(=O)N2CCCCC2)c[nH]1 the survival was inactive: 82%.
With COc1cc(NC(=O)CCc2c(C)nn(-c3ccc(N4CCCCC4)nn3)c2C)cc(OC)c1OC the survival was inactive: 80%.
With Cc1cc(C)cc(NC(=O)CCCc2nc(-c3ccco3)no2)c1 the survival was inactive: 96%.
In the case of Cc1cc(-n2c(C)nc3ccccc3c2=O)ccc1NC(=O)c1ccccc1[N+](=O)[O-], the survival is reported as inactive: 88%.
COc1cccc(CCNC(=O)c2c(O)nc3c(C)cccn3c2=O)c1 was tested, and the survival was inactive: 121%.
With CC(Sc1nnc2ccc3ccccc3n12)C(=O)Nc1ccc(Cl)cc1 (stereo unspecified) the survival was inactive: 80%.
With CCC1(CC)Cc2ccccc2-c2nc(NCCCO)[nH]c(=O)c21 the survival was inactive: 106%.
With CCCc1cc(=O)[nH]c(Nc2cc(C)ccc2OC)n1 the survival was inactive: 86%.
